# The supplement of paper PMC3334620
# The full ranking holds about 33,000 sequences; the median of “E-score (-0.5 to 0.5)” is about -0.016, and the highest 2% start at about 0.32. This is one part of the list.
# Biological target: T1, Stp1 (UniProt B3LFK1)
# T1 sequence: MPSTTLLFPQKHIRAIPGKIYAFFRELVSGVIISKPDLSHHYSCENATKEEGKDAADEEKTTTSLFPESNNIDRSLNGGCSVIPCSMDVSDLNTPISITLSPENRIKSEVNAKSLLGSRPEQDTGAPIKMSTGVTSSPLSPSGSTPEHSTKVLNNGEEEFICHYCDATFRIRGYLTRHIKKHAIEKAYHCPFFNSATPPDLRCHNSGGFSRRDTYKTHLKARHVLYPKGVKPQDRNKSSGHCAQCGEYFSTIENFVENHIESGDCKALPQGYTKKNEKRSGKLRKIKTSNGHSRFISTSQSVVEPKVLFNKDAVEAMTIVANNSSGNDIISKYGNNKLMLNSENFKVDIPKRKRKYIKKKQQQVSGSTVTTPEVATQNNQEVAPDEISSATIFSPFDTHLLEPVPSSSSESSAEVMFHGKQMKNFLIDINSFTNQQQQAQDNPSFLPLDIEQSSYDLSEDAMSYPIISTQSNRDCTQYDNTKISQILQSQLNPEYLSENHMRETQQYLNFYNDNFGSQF
# Experiment: PBM E-score (8-mer binding enrichment) (E-score (-0.5 to 0.5)); higher = stronger / more preferred TF binding; most listed sequences are background and not binding sites
# Details: protein concentration: 200 nM; construct: GST-full length
# Method in brief: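 The E-score, a modified Wilcoxon-Mann-Whitney statistic, was computed by the Universal PBM Analysis Suite for every ungapped eight-base word pooled with its reverse complement. Scans behind it were normalised with masliner after bound GST-tagged yeast transcription factors were detected with fluorescent anti-GST. The proteins, at about 100-200 nM, had been applied to universal all-10-mer Agilent arrays made double-stranded by primer extension.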
row,Sequence,PBM E-score
1,AGAGAGCT,-0.242
2,CCAGGCCG,0.0146
3,ACTGCTCA,0.239
4,AGATTCCG,0.114
5,GGTCCTTA,-0.161
6,GCGGGCCC,-0.0768
7,ATTCCCAA,-0.0332
8,CCCTCTTC,-0.308
9,TGACTCAA,0.107
10,ATCCAAAT,0.058
11,ATGGGATA,-0.303
12,GAAAACCA,0.135
13,ATCGCATA,0.00415
14,GTTTTTCA,0.159
15,ACGAGGAT,-0.102
16,AGTTCCGC,0.135
17,AGCGTCCT,-0.272
18,CTCCTTAC,-0.0976
19,ACATTAAC,0.0825
20,GTGACAGA,-0.0145
21,ACTGAACG,0.0829
22,ATTGTACA,0.0359
23,TTATGCAA,-0.0234
24,AAGTACGC,-0.00925
25,ACGCTGGC,-0.0221

row,Sequence,PBM E-score
1,AACAGTAC,0.0276
2,CTTGAGGC,-0.136
3,CCGACCCA,-0.0432
4,CCCCTGCG,-0.279
5,GACTGTGC,-0.00258
6,ACGGGCCA,-0.0905
7,CAAAGGCC,-0.166
8,CGCCGGCA,0.0879
9,GCTGCACA,-0.0488
10,ACTTGAGG,-0.181
11,CAAGGACG,-0.0482
12,ACCTAACA,0.0612
13,AAAAAAAC,0.0973
14,ACCCCGTA,0.0799
15,GAAACGAC,0.0801
16,CCTTTTTC,0.104
17,GTAGTTTA,0.0789
18,GAATAGCA,-0.0635
19,GAAATCTA,0.122
20,AGCACAGA,0.0637
21,AGACTTTA,-0.0614
22,AGGGAATG,-0.0516
23,ATGTCTGG,0.0261
24,AGAATTCT,0.211
25,CCTGTCGC,0.0227

row,Sequence,PBM E-score
1,AGACAGTG,-0.123
2,AATTGTCC,-0.0384
3,ACAGTACA,-0.0898
4,AGATCGGA,-0.143
5,CCTGATTA,-0.0334
6,TCGAGCGA,0.0323
7,CAAGTATG,0.115
8,CCGCACAC,0.214
9,CAAATCAA,0.234
10,ACACAAAG,0.131
11,ATACACTA,0.00137
12,AGCCTCCC,-0.277
13,CACACTCA,0.0928
14,AATAGGGT,-0.15
15,CCGACGCC,0.197
16,CCGACTGA,-0.059
17,GCCCTCGC,-0.0225
18,GTGTATAA,-0.0455
19,ATGTGGCG,0.322
20,CCCGGGCC,-0.151
21,AAAAGCCT,-0.0406
22,ATAGTCAT,-0.11
23,ATTCGCGA,-0.0465
24,CCCCCCCG,-0.397
25,CCTTTAAC,0.155

row,Sequence,PBM E-score
1,AATCCTTA,-0.0134
2,ATTCAACA,0.193
3,GAAGTCAA,0.0839
4,AGCCTTTC,-0.0105
5,CGAATCCG,0.0661
6,CACGCTCC,0.00924
7,CAGATATA,0.111
8,ACCTTCAG,-0.156
9,CAGGCCGC,0.0538
10,GTAAATTA,0.0232
11,ATACCTTC,-0.106
12,TGGTTACA,-0.0623
13,ACCAGAAG,-0.145
14,ACAGACTA,0.00625
15,CGTATGAA,0.285
16,ATGGACTA,-0.151
17,AAACCCGC,0.229
18,CTTCTTTA,0.0599
19,CACACGAA,0.116
20,AAGGCGCG,0.4
21,ATTCCAAT,0.143
22,ATGCAATC,0.0729
23,ATGCCGAG,0.31
24,CCGGCTCA,0.0597
25,GCAAGTAA,0.0895

row,Sequence,PBM E-score
1,CTCGATTC,-0.0889
2,AACCGAAT,0.0369
3,ATCTGTCA,0.108
4,CTGCGAGC,0.043
5,AAATATCC,0.154
6,ACGCCGAC,0.204
7,CGGGTGGA,-0.162
8,TCGGTTAA,0.0071
9,ATTACGCC,0.0926
10,ATGGCTTC,0.111
11,ACTGAGAC,0.0346
12,CACCTTGG,-0.256
13,ACGTGGGC,0.0461
14,GCAGGCTA,-0.205
15,CTGCCGGA,0.02
16,AAATTGGT,0.18
17,ATTTCCGG,-0.0307
18,GTGTGGCA,0.224
19,ATCTTCAG,0.0977
20,CACAGGTA,-0.122
21,CTACCTAC,0.0793
22,GTGGAACA,-0.00491
23,CTGCCGGC,-0.0153
24,AGAAATTA,0.243
25,CAACGAAC,0.051

row,Sequence,PBM E-score
1,AGAGGAGA,-0.3
2,GGGGTCAC,-0.284
3,AACTACTT,-0.0113
4,CAAGCGGG,-0.168
5,GGCCGGTA,0.194
6,TAAGGGTA,-0.209
7,ATGCCGGA,0.0395
8,CAATAACC,0.0421
9,TCTCCCCA,-0.293
10,TACCCACA,-0.143
11,GAAACAGA,0.177
12,TAGATTGA,0.0779
13,CCATATCG,0.0866
14,ACTAAGCC,-5e-05
15,CCTTATAG,0.0305
16,ACCCTTCA,-0.132
17,CCCCCGGG,-0.275
18,TCGTGACA,0.0244
19,GCCGAGGA,0.0308
20,GAGGTGGA,-0.306
21,ACCGAAGG,-0.0987
22,AGAAGTAT,0.175
23,CGCGTAGA,0.00323
24,GGAGCAGA,-0.199
25,AGAAGGTC,-0.213

row,Sequence,PBM E-score
1,CATACCTA,-0.145
2,CAATAGAG,0.0636
3,ACGTGCCG,0.39
4,AGCACGGG,0.14
5,AGATAGGC,-0.12
6,CAGGGGTC,-0.312
7,CCTCGTCG,-0.0113
8,TGGAGCCA,-0.0285
9,AAGACTGG,-0.0732
10,CGACAGAG,-0.28
11,CGAGTCCG,0.128
12,TACTAAGA,0.0816
13,CTGGAAAA,0.129
14,ACCACAGC,-0.027
15,CTAGTTAA,0.0478
16,CTGCGGAC,0.145
17,ACTGCAGA,-0.0573
18,AACTCGGC,0.106
19,GGGTCCAC,-0.173
20,GTCTCGGA,-0.0542
21,AGGCTTGC,-0.31
22,AGAGCTCG,-0.149
